From PubChem BioAssay AID1508642 (National Center for Advancing Translational Sciences (NCATS), 2021)
About 200 (0.47%) of roughly 43,000 compounds were called active. Inconclusive results (about 12%) are left out. Calls follow the shape of the dose curve; as a rule, active = well fitted cell-killing curve with a large enough effect; inconclusive = small, poorly fitted or top-dose-only effect, or effect the other way; inactive = flat fitted curve, though single readings scatter. The list shows a part of the results.

assay: Cell viability qHTS assay in S16 Pmp22-F2sN cells; details: S16 Pmp22-F2sN Schwann cells (luciferase reporters placed in the Pmp22 gene) viability, CellTiter-Glo, 24 h; series mostly up to 57.5 µM; activity change, negative = cytotoxicity: at the top concentration; also: nearly all actives have a fitted effect of over 65% in size
Source text: Assay Provider: Jim Inglese Ph.D. National Center for Advancing Translational Science, National Institutes of Health, Rockville, MD CMT is a heterogeneous group of neurological disorders that affect approximately 1 in 2,500 people. In particular, the most common form of CMT, CMT1A is genetically linked to the duplication of the PMP22 gene which leads to Schwann cell overexpression, thus manifesting itself as a typical case of dose-sensitive diseases. To identify small molecule compounds that can mediate the expression of PMP22 we developed a phenotypic assay screening strategy by utilizing genome editing techniques to construct Schwann cell lines containing novel reporter technology to monitor the transcriptional or translational regulation of PMP22. For high sensitivity we use a bioluminescent reporter system embedded in the 3' UTR of the PMP22 gene (S16(c9) Pmp22-F2sN) to identify compounds that inhibit gene expression. […] We can further discriminate the effect of all transcriptionally active molecules on PMP22 translation or stability with an assay that incorporates a short NLuc peptide (HiBiT) at the C-terminus of expressed PMP22 (S16(f8) PMP22-HiBiT) allowing alpha complementation and luminescence detection of membrane-associated PMP22 protein. These assays were screened against the NCATS Sytravon Library Collection. Miniaturization of these assays to 1536-well plate format for quantitative high throughput screening (qHTS) yielded rich data sets immediately from the qHTS assay (S16(c9) Pmp22-F2sN), when compared with data from a cell viability assay (Cell TiterGlo) to identify compounds that decreased the output signals through cellular toxicity to streamline the selection process of actives for subsequent characterization using the HiBiT assay (S16(f8) PMP22-HiBiT).
Cell viability assay in S16 Pmp22-F2sN cells PROTOCOL TABLE (format as described by Inglese J, Shamu CE and Guy RK. 2007) SEQUENCE No. (e.g., 1, 2, 3, etc.); […] (e.g., Cells, Incubation, Reagent, etc.); VALUE and DESCRIPTION. 1. Cells. Add 500-1,000 cells in 4 uL in growth media (DMEM High Glucose, No Phenol Red media + 10% heat-inactivated FBS + 1% Pen/Strep supplemented media) per well into Greiner 1536-well white/solid bottom high base, TC-treated plates. 2. Compounds. Library compounds and controls added at 23nL per well, transferred by Pin Tool. 3. Incubation. Incubate plates at 37C, 5% CO2, 95% RH for 24 h. 4. Reagent. Add 3uL CellTiter-Glo per well of Greiner 1536-well plates. 5. Incubation. Incubate plates at room temperature for 15 min., protect from light. 6. Detector. FLuc luminescence measured using CCD-based camera (Viewlux). NOTES (numbers refer to Sequence numbers above; values are from representative experiments) 6. Luminescence Read: Clear filter; Exposure = 1 sec, Gain = High, Speed = Slow, Binning = 2X REFERENCES: 1. Inglese J, Shamu CE and Guy RK, Reporting data from high throughput screening of small molecule libraries, Nature Chemical Biology, 2007, 3(8): 438-441. doi.org/10.1038/nchembio0807-438 2. Yasgar A, Shinn P, Jadhav A, Auld DS, Michael S, Zheng W, Austin CP, Inglese J and Simeonov A, Compound Management for Quantitative High-Throughput Screening. J. Assoc. Lab. Auto., 2008, 13: 79-89. doi: 10.1016/j.jala.2007.12.004
% is scaled to controls: 0 for no effect and ±100 for the full control effect; potency is read from the fitted curve at half-maximal effect.

SMILES	activity change, negative = cytotoxicity	Potency
COc1ccc(-c2nc3ccccc3o2)cc1NC(=O)c1cc(Br)ccc1OC	inactive: 1.39%	
Cc1cccc(N2CCN(C(=O)Cc3c(C(=O)O)c(C)cn3C)CC2C)c1 (centres undefined)	inactive: 4.04%	
CN(Cc1ccccc1)C(=O)c1ccc(CSc2nc3cccnc3n2Cc2ccccc2)cc1	inactive: -1.54%	
CCCS(=O)(=O)Nc1cccc(-c2cn3ccsc3n2)c1	inactive: -10%	
Cc1cccc(CSc2nc3ccncc3n2CC(=O)N(C)C2CCCCC2)c1	inactive: -0.849%	
COc1ccc(CCNC(=O)c2ccc3nc(CCc4ccccc4)oc3c2)cc1OC	inactive: 16.5%	
COc1ccc(NC(=O)Cn2c(=O)oc3cc(S(=O)(=O)N4CCCC4)ccc32)cc1OC	inactive: 6.91%	
COc1ccc(OC)c(NC(=O)c2nnn(CC(=O)Nc3ccc(C(C)C)cc3)c2N)c1	inactive: 3.4%	
COc1ccc(NC(=O)Cn2cnc3c(nc4n3CCCCC4)c2=O)cc1Cl	inactive: -2.85%	
COc1ccc(C2CC(=O)Nc3c2c(C)nn3-c2nc(C)cc(C)n2)c(OC)c1OC (centres undefined)	inactive: -0.398%	
CCc1cccc(NC(=O)CCn2nc(C)cc2C)c1	inactive: 9.82%	
CCC(=O)NCCc1sc2nc(-c3ccc(OC)cc3)nn2c1C	inactive: 6.04%	
Cc1ccc(NC(=O)C2CCCN(S(=O)(=O)c3cccc4nsnc34)C2)c(C)c1 (centres undefined)	inactive: -5.6%	
CCOc1ccc(C(=O)NCCc2csc(-c3cccnc3)n2)cc1	inactive: 1.89%	
Cc1ccc(Cl)cc1Nc1nn2c(=O)c3ccc(C(=O)NC4CCC(C)CC4)cc3nc2s1 (centres undefined)	inactive: 2.09%	
O=C(Cn1c(=O)n(-c2ccc(F)c(Cl)c2)c(=O)c2sc3ccccc3c21)NC1CCCCC1	inactive: -1.07%	
CCOC(=O)c1c(-c2ccccc2)oc2cc(Br)c(OCc3ccccc3)cc12	inactive: 14.4%	
CCn1c(=N)c(C(=O)NC2CCCC2)cc2c(=O)n3cc(C)ccc3nc21	inactive: 5.31%	
Cc1ccc(OCCCCn2nnc3sc4c(c3c2=O)CCC(C)C4)cc1 (centres undefined)	inactive: 3.58%	
CCC(C)S(=O)(=O)c1oc(-c2ccc(F)cc2)nc1S(=O)(=O)c1ccc(F)cc1 (centres undefined)		active: 6.31 µM
CCc1ccc(NC(=O)Cn2c(=O)n(CCC(=O)NCCc3ccc(OC)c(OC)c3)c(=O)c3ccccc32)cc1	inactive: 6.78%	
CCNC(=O)C1CCCN(c2nn3cc(-c4ccc(C)cc4)nc3s2)C1 (centres undefined)	inactive: -19.9%	
Cc1ccc(N2CC(NC(=O)C3CCCC3)CC2=O)cc1C (centres undefined)	inactive: 3.78%	
CC(=O)c1ccc(S(=O)(=O)N2CCn3cccc3C2c2ccc(F)c(F)c2)cc1 (centres undefined)	inactive: -18.8%	
CCc1cc(C(=O)NCc2ccc(F)cc2)no1	inactive: 4.71%	

SMILES	activity change, negative = cytotoxicity	Potency
COc1ccc(CNc2ncnc3c2c(-c2ccccc2)cn3-c2cccc(C)c2)cc1	inactive: 0.255%	
Cc1ccc(NC(=O)CSc2nc(C3CCCC3)nc3c2c(=O)n(C)c(=O)n3C)c(C)c1	inactive: 3.13%	
CCc1nnc(SCc2nc(-c3cccc(C)c3)oc2C)c2cc3sc(C)cc3n12	inactive: 12.6%	
O=C(CSc1nccn1-c1ccc(F)cc1)Nc1cccc2ccccc12	inactive: -1.99%	
COc1ccc(C(=O)Nc2cc(NC(=O)c3ccco3)ccc2OC)cc1Cl	inactive: -3.67%	
O=C(COc1ccccc1Cl)Nc1nc(-c2ccc(F)cc2)ns1	inactive: -0.286%	
COc1cccc(NC(=O)C2CCN(S(=O)(=O)c3c(C)noc3/C=C/c3cccs3)CC2)c1	inactive: -23.6%	
COc1ccc2c(c1)CC(NC(=O)Nc1ccc(Br)c(C)c1)CO2 (centres undefined)	inactive: 0.789%	
CCC(=O)N1c2ccc(S(=O)(=O)CCC(=O)N3CCN(c4ccc(F)cc4)CC3)cc2CC1C (centres undefined)	inactive: 5.05%	
O=C(Nc1cccc(NC(=O)c2ccc(Br)cc2)c1)c1ccccc1	inactive: 25.6%	
CCCn1c(NCc2ccccc2F)nc2ccccc21	inactive: 5.53%	
CCCCCNC(=O)c1ccc2c(=O)n(CCc3ccccc3)c(=O)[nH]c2c1	inactive: -0.593%	
CCOC(=O)N1CCc2c(sc(NCc3cccc(F)c3)c2C(=O)Nc2ccc(OCC)cc2)C1	inactive: -1.03%	
CCN(C(=O)c1cccn(Cc2cccc(Cl)c2)c1=O)c1ccccc1	inactive: -1.55%	
Cc1ccc(-c2nc(Cn3c(SCc4ccc(F)cc4)nc4cccnc43)c(C)o2)cc1	inactive: -18.1%	
COc1ccc(C(=O)Nc2nonc2-c2ccc(OC)c(OC)c2)cc1Cl	inactive: -29.7%	
COc1ccc(-c2nnc(SCC(=O)Oc3cc(C)ccc3C)o2)cc1	inactive: 2.61%	
CCOC(=O)c1cc2c(=O)n3ccccc3nc2n(CC2CCCO2)c1=NC(=O)c1ccc(F)cc1 (centres undefined)	inactive: 2.24%	
CCc1cccc(NC(=O)Cn2nc(C)c3sc4ccccc4c3c2=O)c1	inactive: -3.99%	
COc1ccccc1OC(C)C(=O)N1CCC(c2nc3ccccc3s2)CC1 (centres undefined)	inactive: -18.7%	
COc1ccc(Cn2c(=O)c3ccccc3n3c(-c4ccc(C)cc4)nnc23)cc1	inactive: 1.5%	
COc1ccc(Cn2c(C(=O)O)c(CNCc3ccc(C)o3)c3ccc(OC)cc32)cc1	inactive: -26%	
Cc1ccc(C)c(NC(=O)Cn2cc(S(=O)(=O)NC(C)C)c(S(=O)(=O)NC(C)C)c2)c1	inactive: -12.4%	
Cc1ccc(OCc2cc(=O)n3cc(C)sc3n2)c(NC(=O)c2ccco2)c1	inactive: -5.36%	
